These results are taken from the RNAGym collection of RNA variant scans (doi:10.7554/elife.90254).

Sequences and labels used below:
B1: LINE1-mini (parent)
chain: GGCAGAGCUCAACACAGCGUGGCAAAGUGGCUGUGGCUAGACUGCC

The source gives no read counts; variants with many changes may rest on few reads.

Variants of B1 are the subject of this data set. In words: self-cleavage, relative activity (ratio to wild type); higher = more cleavage; in vitro, sequencing; the parent is a self-cleaving ribozyme.
In the case of GGCACUGCUCAACACAGCGUGGCAAAGUGGCUGUGGCUAGACUACC, the self-cleavage was 0.03.

Turning to GGCAAAGCGCAACACAGCGUGGCAAAGUGGCUGUGGCUAGGCUGCC, the self-cleavage is 0.08. For the variant GGCAAAGCGCAACACAGCGUGGCAAAGUGGCUGUGGUUAGACUGCC, the self-cleavage worked out at 0.59. Under GGCAAAGCCCAACACAGCGUUGCACAGUGGCUGUGGGUAGACUGCC stands 0.02; under GGCAAAGCUCAACACAGCGUGGCAAAGCCGCUGUGGCUAGACUGCC, 0.15.

In the case of GGCAAAGCUCAACACAGCGUGGCAAAUUGGCUGUGGAUAGCCUGCC, the self-cleavage came to 0.03. Under GGCAAAGCUCAACACAGCGUGGCAAAGUGGCUUUUGCUGGACUGCC stands 0.08; under GGCACUGCUCAAAAAAGCGUGGCAAAGUGGCUGUGGCUAUACUGCC, 0.02. As for GGCAAAGCGCCACACAGCGUGGCAAAGUGGCUGUGGCUAGACUGCC, the figure is 0.01; as for GGCAAAGCUCAACACAGCGUGGCAAAGUGGCUGUGGCGACACUGCA, 0.11; as for GGCAAAGCGCCACACAGCGUGGCUAAGUGGCUGUGGCUAGACUGCC, 0.02. Under GGCAAAGCUCAACACAGCGAGGCGAAGUGGCUGUGGCUAGACUGCC stands 0.03; under GGCAAAGCUCAACACAGCGUGGCAAAGUCGCUGUGGCUAAACUGCC, 0.02; under GGCACUGCUCAACACAGCGUGGCAAAGUGGCUGUGGCUAGAAUGCC, 0.23.

For the variant GGCACGGCUCAACACAGCGUGGCAAAGUGGCUGUGGCUAGACUGCU, the self-cleavage stood at 0.04. Under GGCAAAGCUCAACACAGCGUGGCAAACUGGCUGAGCCUAGACUGCC stands 0.01; under GGCAAAGCUCAACACAGCGUGGCAAAGCGGCUGGGGCUCGACUGCC, 0.01. For GGCACGGCUCAACACAGCGUGGCAAAGUGGCUGUGGCUAGACUGGC, the self-cleavage came out at 0.05. Under GGCACGGCUAAACACAGCGUGGCAAAGUUGCUGUGGCUAGACUGCC stands 0.03; under GGCAAAGCUCAACACAGCGAGGCAAACUGGCUGGGUCUAGACUGCC, 0.05; under GGCAAAGCUCAACACAGCGUGGCAAAUUGGCUUUGGCAAGACUGCC, 0.03. Under GGCAAAGCUCAACACAGCGCGGCAAAGUGGCUGUGGCUAGUCUGCC stands 0.08; under GGCACUGCUCACCACAGCGUGGCAAAGUGGCUGUGGCUAGACUGCC, 0.03. Under GGCAAAGCUCAACACAGCGUGGCAAAGUAGCUGUGGCUAGACUGCU stands 0.06; under GGCAAAGCACAACACAGCGUGGCACAGUGGCUGUGGCUAGACUGCC, 0.09. Consider GGCAAAGCUCAACACAGCGUGGCAAAGCGGCUUUGGAUAGACUGCC, for which the self-cleavage was 0.05. Turning to GGCACUGCUCAACAAAGCAUGGCAAAGUGGCUGUGGCUAGACUGCC, the self-cleavage was determined as 0.02. For GGCAAAGCUCAACACAGCGUGGCAAAGUGGCUGUGUCUAGAUUGCC, the self-cleavage is 0.02. As for GGCAAAGCUCAACACAGCGAGGCAAAGUGGCUGAGGCUAGUCUGCC, the figure is 0.4; as for GGCACUACUUAACACAGAGUGGCAAAGUAACUGUGGCAAGACUGCC, 0.04. As for GGCAAAGCUCAACACAGCGUGGCAAAGUUUCUGUGGCCAGACUGCC, the figure is 0.04; as for GGCAAAGCUCAACACAGCGUGGCAAAGUUGCUGUGGCUUGACUGUC, 0.26; as for GGCAAAGCGCAAGACACCCUGGAAAAGUGGCUGUGGCUAGACUGCC, 0.08. As for GGCAAAGCCCGACACAGCGUGACUAAGUUGCUGUGGCUAGAGUGCC, the figure is 0; as for GGCAAAGCUCAACACAGCGUGGCAAAGUGGCUGCGGCUAUACUGCC, 0.03; as for GGCAAAGCUCAACACAGCGUGGCAAAGUGGCUGUGGCUAUACUACC, 0.04. In the case of GGCAAAGCUCAACACAGCGUGGCAAAGUGGCUGUGGCUAUACUUCC, the self-cleavage was 0.03. Under GGCAAAGCGCAACACAGCGUGGCAACGUGGCUGUGGCCAGACUGCC stands 0.16; under GGCAAAGCUCAACACAGCGUGGCAAAGUGGCUGUAUCUAGACCGCC, 0.09; under GGCACUGCUCACCACAGCGUGGUAAAGUGGCUGUGGCUAGACUGCC, 0. As for GGCAAAGCCCAACACAGCGUGGGAAACUGGCUGUGGCUAGACUGCC, the figure is 0.03; as for GGCAAAGCUCAACACAGCGUGGCAAAGGGGCUGACGCUAGACUUCC, 0.02; as for GGCAAAGCACAACACAGCGUGGCAAAGUGUCUGUGGCUAGACUACA, 0.2. GGCACCGCUCAACACAACGUGGCAAAGUGGCUGUGGCUAGACUGCC: the self-cleavage came out at 0.02. As for GGCAAAGCUCAACACAGCGCGGCAAAGUGGCCGUGGCCAGACUGCC, the figure is 0.03. Under GGCAAAGCUCAACACAGCGUGGCAAAGUGGCUUUGGCUAGUCUUCC stands 0.13; under GGCAAAGCUCAACACAGCGUGGCAAAGUUGCUAUGGUUAGAAUGCC, 0.23.

For GGCAAAGCUCAACACAGCGUGGCAAAUUGUCUGUGGCUAGACUGCC, the self-cleavage came to 0.13. Under GGCAAAGCUCAACACAGCGUGGCAAAGUGACUGUGGCUAGACUCCC stands 0.05; under GGCAAAGCUCAACACAGCGUGGCAAAGUGGCUGUGGCCAGACUGGC, 0.08. Under GGCAAAGCUCAACACAGCGUGGCAAAGUGGCCGUGGCUAGACUGCU stands 0.07; under GGCACCGCUCAACUCUGCGUGGCAAAGUAGCUGUGGCUAGACUGCC, 0.14; under GGCAAAGCUCAACACAGCGCGGUAAAGUGGCUGUGGCUAGACUGCC, 0.03. As for GGCAAAGCUCAACACAGCGUGGCAAAGCGGCUGUCGCUAUACUGCC, the figure is 0.04.

Consider GGCACGGCUCAACACCGCGUGGCAAAGUGGCUGUGGCUAGAGUGCC, for which the self-cleavage was 0.06. Turning to GGCAAAGCUCAACACAGCGAGGCAAAGUGGCUGUGUCUGGACUGCA, the self-cleavage was 0. As for GGCAAAGCUCAACACAGCGUGGCAAAGUGGCUAUGGCUAGACCGCC, the figure is 0.09; as for GGCAAAGCUCAACACAGCGUGGCAAAGUGGCAGUGGCUAGACCGCC, 0.01; as for GGCAAAGCUCAACACAGCGUGGCAAAGUGGCUGUAGCUAGACUACC, 0.09. Under GGCAAAGCUCAACACAGCGAGGCAAAGUGGCUGCGGCUAGACUGCC stands 0.04; under GGCAAAGCUCAACACAGCGCGGAAAAGUGGCCGUGGCUAGACUGCC, 0.06; under GGCAAAGCUCAACACAGCGGGGCAAAGUUGCAGUGGUUAGACUGCC, 0.1. As for GGCAAAGCUCAACACAGCGUGGCAAAGUGGCAGAGGCUAGACUGCC, the figure is 0.11; as for GGCACGGCGCAACACAGCGUGGCAAAGUGGCUAUGGCUAGACCGUC, 0.01; as for GGCAAAGCUCAACACAGCGGGGCAAAGUGGGUCUGGCUAGACUGCC, 0.03. Take GGCAAAGCUCAACACAGCGGGACAAAGUGGCUGUGGCUAGACUGCC: the self-cleavage stood at 0.02. As for GGCAAAGCGCAACACAGCGUGGCAAAGUUGCUGUGACUAGACUGCC, the figure is 1. In the case of GGCAAAGCUCAACACAGCGUGGCAAAGUGGCUGUGGCUAGACCGGC, the self-cleavage was found to be 0.09. In the case of GGCAAAGCUCAACACAGCGUGGCAAAGUUGCUGUGGCUUAACUGCC, the self-cleavage was found to be 0.01. As for GGCACCGCUCAACACAGCGGUGCAAAGUGGCUGUGGCUAGACUGCA, the figure is 0.04; as for GGCAAAGCUCAACACAGCGUGGCAAAGUGGCCGUGGCUAGUCUGCC, 0.07. Take GGCAAAGCUCAACACAGCGUGGCAAAGUGGCUGGGGCUAGACUGCU: the self-cleavage is 0.05. As for GGCAAAGCACAACACAGCGUGACAAAGUGGCUGUGGCUAGACUGCC, the figure is 0.07. Under GGCACGGCUCAACACAGCGUGGCAAUGUGGCUGCGGCUAGACUGCC stands 0.05. Turning to GGCACGGCUCAACACAGCGUGGCAAAGUGCCUGUGGCUAAACUGCC, the self-cleavage is 0.01. Consider GGCACGGCUCAACACAGCGUGGCAAAAUGGCUGAGGCCAUACUUCC, for which the self-cleavage is 0.02.

GGCACGGCUCUACACAACGUGGCAAGGUGGUUGUGGCUAGACUGCC: the self-cleavage was determined as 0.02. Consider GGCACGGCCCAACACAGAGUGGAAAAGUGGCUGUGUCUAGACUGAC, for which the self-cleavage turned out to be 0. As for GGCAAAGCUCAACACAGCGUGGCAAAGUGGCUGUGUAUAGACUGCC, the figure is 0.11; as for GGCAAAGCACGACACAGAGUGGCAAAGUGGCUGUGUCUAGACUGCC, 0.01.

Take GGCACGGCUCAACCCAGCGUGUCAAAGUGGCUGUGGAUAGACUGCC: the self-cleavage amounted to 0.02. Under GGCACUGCUCAACGCAGCGUGGAAAAUUGGCUGUGGCUAGACUGCC stands 0.22; under GGCAAAGCACAACAUAGCGUGGCAAAGUGGCUCUGGCUAGACUGCC, 0.28; under GGCACUGAUCAACACAGAGUGGCAAAGUGGAUGUGGCUAGACUGCC, 0.13. As for GGCAAAGCUCAACACAGCGUGGCAAAGUGGCUGUCACUAGACAGCC, the figure is 0.07; as for GGCAAAGCUCAACACAGCGUGGCAAAGUGACUGUGGCAAGGAUGCC, 0.11. Under GGCACAGCUCCACACAGCGUGGCAAAGUGGAUGUGGCUAGACUGCC stands 0.02; under GGCAAAGCUCAACACAGCGUGGCAAAGUAACUGUGGCUAGACUGCC, 0.1; under GGCAAAGCCCAACACAGCGUGUCAAAUUGGGUGUGGCUAGACUGCC, 0.01. For the variant GGCACCGCUCAACACAGCGUUGUAAAGUGGCUGUGGCUAGACUGUC, the self-cleavage is 0.69. Turning to GGCAAAGCUCAACACAGCGGGGCAAAGUGGCUGUGGCUAGACUGGC, the self-cleavage came to 0.02. Under GGCAAAGCACAACACAACGUGGCAAAGUGGCUGUGGCUAGGCUGCC stands 0.01.

As for GGCAAAGCUCAACACAGCGAGGCAAAGUGGCCGUGCCUAAACUGCC, the self-cleavage stood at 0.01. As for GGCAAAGCUCAACACAGCGAGGCAUAGUGGGUGUGGGUAGACUGCC, the figure is 0.01; as for GGCAAAGCUCAACACAGCGUGGCAAAGUGGCUGGGGCUAUACUGCC, 0.08. As for GGCAAAGCCCACCACAGCGUGGCAAAGUAGCUGUGGCUAGACUGCC, the figure is 0.02. Under GGCAAAGCUCAACACAGCGUGGCAAAGAGGCUGUGGCUAGAGUGCC stands 0.02; under GGCAAAGCUCAACACAGCGUGGCAAAGCGGCUGUGGCUAUACUGCC, 0.02; under GGCAAAGCUCAACACAGCGUGGCAAAGUGGCCGUGGCUAAACUGCC, 0.04. As to GGCAAAGCGCAACAAACCGUGGCAAAGUCGCUGUGGCUAAACUGCC, the self-cleavage was 0.07. Consider GGCAAAGCUCAACACAGCGUGGCAAAUUGGUUGUGGCUAGACUGCC, for which the self-cleavage turned out to be 0.2. In the case of GGCAAAGCCUAACACAGCGUGGCAAAGUGGCUGUGGCUAGACUGCC, the self-cleavage was determined as 0.01. As for GGCAAAGCUCAACACAGCGUGGCAAAGUGCAUGUGGCUAGACUGCC, the figure is 0.05; as for GGCAAAGCUCAACACAGCGUGGCAAAGUGCGUGUGGCUAGACUGCC, 0.05; as for GGCAAAGCACAACACAGGGUGGCAAAGUGGCUGUGGCUAGACUGCA, 0.1. Under GGCAAAGCUCAACACAGCGUGGCAAAGUGCCUGAGGCUAGACUGCC stands 0.04; under GGCAAAGCACAACACAGCGUGGCAAAGAGGCUGUGGCUAUACUGCC, 0.12. As for GGCAAAGCCCAACACAGCGUGGCAAAAUGGCUGUGGCUAGCCUGCC, the self-cleavage came to 0.02. Under GGCAAAGCUCAACACAGCGUGGCAAAGUGCCUGGGGCUAGACAGCC stands 0.03; under GGCACGGCUCAACACACUGUGGCAAAGUGGCUGUGGCUAUACUGCC, 0.01.

On to GGCAAAGCUCAACACAGCGCGGCACAGUGGCUGUGGCUAGACUGCC, for which the self-cleavage turned out to be 0.04.

For GGCAAAGCGCCACACAGCGUGGCAAAGUGGCUGUGGCUAGAGUGCC, the self-cleavage came to 0.02.
